Here are results for four molecules from patent US20170304437A1 (ALLIGATOR BIOSCIENCE, published 2017).

The target in one test is T1, CD40-Fc (R&D #1493-CD) (human, UniProt P25942 in part).
T1 construct: Bought reagent immobilised on the Biacore chip; also called human CD40; not shown: Fc part of the bought fusion
Nature of the test: Biacore SPR, immobilised CD40-Fc (protocol of Example 7). The method, then:
(§1) CD40-Fc (R&D #1493-CD) was immobilized to the BIAcore sensorship, CMS, using conventional amine coupling. 0.5 uM Bispecific construct (957/530) was injected over immobilized CD40 for 3 minutes and the dissociation was followed for 3 minutes. 2.17 uM CTLA4-Fc (Orencia, Bristol-Mayers Squibb) was injected over the CD40-Bispecific complex for 3 minutes and the dissociation phase was followed for 3 minutes. The chip was finally regenerated using 10 mM Glycine, pH 1.7. A Biacore 3000 instrument was used according to the manufacturer's protocols.
(§2) The six different exemplary bispecific polypeptides from Example 13 were tested for their ability to bind to both CD40 and CTLA-4. This was assessed by Surface Plasmon Resonance using the same protocol as in Example 7 above.

Test [1] has as its target T2, human CTLA4-Fc (Fitzgerald #30R-CD152) (human, UniProt P16410 38-152).
T2 construct: Bought reagent; also called biotinylated-CTLA4; human CTLA-4 (Fitzgerald); not shown: Fc part of the bought fusion
Kind of test: binding ELISA on coated CTLA4-Fc (protocol of Example 7), sample titrated, anti-human IgG Fc-HRP. A general note: An ELISA detects its analyte on a solid surface through an enzyme-linked reagent.

For test [2], the target named is T3, CTLA4-Fc (Orencia, Bristol-Mayers Squibb) (human, UniProt P16410 38-152).
T3 construct: Commercial drug Orencia; Biotinylated in the dual ELISA; also called soluble CTLA-4; human CTLA-4; not shown: Fc part of Orencia
Nature of the test: Biacore SPR, CTLA4-Fc injected over bispecific held on immobilised CD40-Fc (protocol of Example 7). The method, then:
as §1, §2
(In general: In SPR one partner is held on a chip, and binding of the other changes the refractive index at the surface.)

The target in test [3] is T4, CD40-Fc (Ancell # 504-820) (human, UniProt P25942 in part).
T4 construct: Bought reagent; also called human CD40; not shown: Fc part of the bought fusion
Kind of test: binding ELISA on coated CD40-Fc (protocol of Example 7), sample titrated, anti-human IgG Fc-HRP.

Test [4] concerns the target T2, human CTLA4-Fc (Fitzgerald #30R-CD152). Nature of the test: binding ELISA on coated CTLA4-Fc (protocol of Example 7), sample titrated, anti-human IgG Fc-HRP. This is another data set of the same source.
Test [5] addresses T4, CD40-Fc (Ancell # 504-820). Nature of the test: binding ELISA on coated CD40-Fc (protocol of Example 7), sample titrated, anti-human IgG Fc-HRP. This is another data set of the same source.
Test [6] deals with T2, human CTLA4-Fc (Fitzgerald #30R-CD152). Nature of the test: binding ELISA on coated CTLA4-Fc (protocol of Example 7), sample titrated, anti-human IgG Fc-HRP. The source holds these as a separate data set.
T2 sequence (P16410 38-152 limits assumed): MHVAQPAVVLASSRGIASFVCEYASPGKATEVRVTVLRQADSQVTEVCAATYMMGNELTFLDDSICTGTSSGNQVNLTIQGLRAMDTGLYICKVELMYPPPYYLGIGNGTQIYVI
Test [7] concerns the target T4, CD40-Fc (Ancell # 504-820). Kind of test: binding ELISA on coated CD40-Fc (protocol of Example 7), sample titrated, anti-human IgG Fc-HRP. This is another data set of the same source.
Test [8] addresses T2, human CTLA4-Fc (Fitzgerald #30R-CD152). Kind of test: binding ELISA on coated CTLA4-Fc (protocol of Example 7), sample titrated, anti-human IgG Fc-HRP. The source holds these as a separate data set.

Numbering of substitutions follows the chain as printed. Like-named read-outs stand apart in the source and are kept apart here.

T4 sequence (P25942 21-193 limits assumed): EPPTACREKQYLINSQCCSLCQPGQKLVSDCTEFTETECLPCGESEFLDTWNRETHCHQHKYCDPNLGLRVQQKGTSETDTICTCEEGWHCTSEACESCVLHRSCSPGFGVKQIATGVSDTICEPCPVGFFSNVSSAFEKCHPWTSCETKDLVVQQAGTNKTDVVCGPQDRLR
Sequence of CD40-Fc (R&D #1493-CD) (P25942 21-193 limits assumed): as above

B1: Bispecific polypeptide 1136/1143 (bispecific antibody, human IgG1, kappa)
light: DIQMTQSPSSLSASVGDRVTITCRASQSISSYLNWYQQKPGKAPKLLIYAASSLQSGVPSRFSGSGSGTDFTLTISSLQPEDFATYYCQQAYYAGLFTFGQGTKLEIKRTVAAPSVFIFPPSDEQLKSGTASVVCLLNNFYPREAKVQWKVDNALQSGNSQESVTEQDSKDSTYSLSSTLTLSKADYEKHKVYACEVTHQGLSSPVTKSFNRGECSGGGGSGGGGSAPLKIQAYFNETADLPCQFANSQNLSLSELVVFWQDQENLVLNEVYLGKERFDSVDSKYMGRTSFDSDSWTLRLHNLQIKDKGRYQCIIHHKKPTGMINIHQMNSELSVLA
heavy: [about 100 residues not shown]YVFGIDYWGQGTLVTVSS[human IgG1 constant region not shown]
As a reminder, the Kd is the equilibrium constant for the complex coming apart. A higher Kd goes with a looser complex. One may read the koff as the rate constant with which the complex falls apart. Lower therefore signals slow dissociation. One may read the kon as the second-order rate constant of association. The term EC50 (read off the curve) denotes the concentration needed to bring the measured effect to its halfway point. In the test with CD40-Fc (R&D #1493-CD), B1 yielded a dissociation constant Kd of 38.9 nM, a koff of 0.00563 s⁻¹ and a kon of 145000 M⁻¹ s⁻¹. Further, in test [1], the “EC50 (read off the curve)” value was around 0.02 µg/mL.

B2: Bispecific polypeptide 1132/1139 (bispecific antibody, human IgG1, kappa)
light: DIQMTQSPSSLSASVGDRVTITCRASQSISSYLNWYQQKPGKAPKLLIYAASSLQSGVPSRFSGSGSGTDFTLTISSLQPEDFATYYCQQYGRNPPTFGQGTKLEIKRTVAAPSVFIFPPSDEQLKSGTASVVCLLNNFYPREAKVQWKVDNALQSGNSQESVTEQDSKDSTYSLSSTLTLSKADYEKHKVYACEVTHQGLSSPVTKSFNRGECSGGGGSGGGGSAPLKIQAYFNETADLPCQFANSQNLSLSELVVFWQDQENLVLNEVYLGKERFDSVDSKYMGRTSFDSDSWTLRLHNLQIKDKGRYQCIIHHKKPTGMINIHQMNSELSVLA
heavy: EVQLLESGGGLVQPGGSLRLSCAASGFTFSSYAMSWVRQAPGKGLEWVSGIGSYGGGTYYADSVKGRFTISRDNSKNTLYLQMNSLRAEDTAVYYCARYVNFGMDYWGQGTLVTVSS[human IgG1 constant region not shown]
For B2, in the test with CD40-Fc (R&D #1493-CD), the affinity, expressed as Kd, was 6.2 nM; the koff amounted to 0.00844 s⁻¹; the association rate constant (kon) was found to be 1.36e+06 M⁻¹ s⁻¹. In test [2], this molecule displayed an equilibrium dissociation constant (Kd) of 2.92 nM, a koff of 0.00311 s⁻¹ and an association rate constant (kon) of 1.06e+06 M⁻¹ s⁻¹. For the same molecule, the “EC50 (read off the curve)” value in test [3] was around 3 nM. In test [4], the “EC50 (read off the curve)” value is around 0.02 µg/mL.

B3: Bispecific polypeptide 1150/1152 (bispecific antibody, human IgG1, kappa)
light: B2 light with R18H, R93S, N94A
heavy: B2 heavy with S53G, Y54S, G55S, G56S, G57Y, Y59S, V100Y, N101S, F102Y, G103H
Consider B3, for which, in the test with CD40-Fc (R&D #1493-CD), binding was put at a Kd of 2.54 nM, the koff was found to be 0.00326 s⁻¹ and the kon was found to be 1.28e+06 M⁻¹ s⁻¹. In test [2], this molecule registered a Kd of 4.07 nM, a koff of 0.00312 s⁻¹ and an association rate constant (kon) of 765000 M⁻¹ s⁻¹. For the same molecule, in test [5], the “EC50 (read off the curve)” value was around 0.3 nM. Besides, in test [6], the “EC50 (read off the curve)” value was around 0.05 µg/mL.

B4: Bispecific polypeptide 1107/1145 (bispecific antibody, human IgG1, kappa)
light: B2 light with R93V, N94Y, P96F
heavy: [about 100 residues not shown]RVWGFDYWGQGTLVTVSS[human IgG1 constant region not shown]
notes: Anti-CD40 IgG1 with CD86 mutant 1040 at the C terminus of the light chain
In the case of B4, the koff with CD40-Fc (R&D #1493-CD) is 0.00117 s⁻¹; in test [2] it was 0.0031 s⁻¹. Further, the kon with CD40-Fc (R&D #1493-CD) was 347000 M⁻¹ s⁻¹; in [2] it was 1.02e+06 M⁻¹ s⁻¹. In addition, the affinity in test [2], expressed as Kd, was 3.05 nM. Also, the “EC50 (read off the curve)” value in [7] is around 0.6 nM; in test [8], around 0.02 µg/mL.
